Some of the results follow.
Tested on: T1, Caupolican (Caup) homeodomain DNA-binding domain
T1 sequence: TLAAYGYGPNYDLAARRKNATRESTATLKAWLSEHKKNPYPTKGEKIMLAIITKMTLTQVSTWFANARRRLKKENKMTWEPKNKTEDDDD
Experiment: PBM E-score (8-mer, recovered from the published 9-mer minima) (E-score (dimensionless, -0.5 to 0.5)); Drosophila protein; higher = stronger relative binding preference, active = 0.31 or more
How it was run: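 An enrichment score, with higher meaning stronger, expresses relative binding preference for each short DNA word. The protein used was Caup's homeodomain DNA-binding domain (residues 214-303), produced by in vitro transcription and translation and tested at 100 nM on custom-designed protein binding microarrays. The 8-mer values were recovered from published 9-mer scores, each equal to the lower of its two constituent 8-mer scores.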

Sequence | PBM E-score
CCTTTAAG | inactive: -0.138
CGACCGGA | inactive: -0.196
GTGGAAGA | inactive: -0.0964
GACTCTAA | inactive: -0.034
AGTATTCA | inactive: 0.103
TCATCCCA | inactive: -0.0872
CCAGTAAA | inactive: -0.0129
TAATTTCA | ≥ 0.174
CCTGGGCC | inactive: -0.341
AGGCTGCG | inactive: -0.144
TACATCCA | inactive: 0.292
CGCGGTAC | inactive: -0.0358
TCATAAGA | inactive: 0.144
ACCGAGTG | inactive: -0.0584
AATGCAGC | inactive: -0.135
GGGGCATA | inactive: -0.132
ACCAAAAG | inactive: 0.0453
CCGGATAG | inactive: -0.0618
GAGACCGA | inactive: -0.101
TCCAAAAA | inactive: 0.0799
CAACGTCA | inactive: 0.0536
AACGAACA | inactive: 0.305
GGCGCCGA | inactive: -0.127
AGCCTGCC | inactive: -0.204
CCGTCAGG | inactive: -0.168

Sequence | PBM E-score
ACTCCTGG | inactive: -0.124
CCGATACG | inactive: -0.105
AAGACTTC | inactive: -0.0381
GACCATGC | inactive: -0.00055
GTAATGGA | inactive: 0.141
TGACTCCA | inactive: -0.0443
TTAATAAA | ≥ 0.189
CATGAACC | inactive: 0.0853
CACGTAGC | inactive: -0.141
CCCCTAAG | inactive: -0.219
CGTTGCCC | inactive: -0.127
GAATTGGA | inactive: 0.0706
ATAGGCCG | inactive: -0.137
CACAGGTC | inactive: -0.0585
GTACTTAA | inactive: 0.189
ATACAAAC | inactive: 0.27
CTAGGAGA | inactive: 0.015
CACGTTCG | inactive: -0.0159
CGTGGCAG | inactive: -0.152
GTTAGGGA | inactive: -0.0714
CGCGTGGA | inactive: -0.177
ACCACGCG | inactive: -0.106
ATAGTGGG | inactive: 0.0287
CGTCATTA | inactive: 0.0577
ATCATCCC | inactive: -0.0251

Sequence | PBM E-score
CGTTTATC | inactive: -0.0316
AACCAACA | inactive: 0.177
ACTAAACA | inactive: 0.264
ATGACGAC | inactive: 0.141
GTCAACCA | inactive: 0.0944
GCCTGACC | inactive: -0.24
AGGTGAGC | inactive: -0.0846
ACCCCCTG | inactive: -0.205
AGTGGTGC | inactive: -0.0854
CCGACGAA | inactive: 0.0504
CAGTAAGA | inactive: 0.0875
ACCGTGGA | inactive: -0.107
ACTCACGG | inactive: -0.109
AGTGACCG | inactive: -0.144
GCCTAGGC | inactive: -0.182
CCTGGCTC | inactive: -0.189
ACGTCTAG | inactive: 0.0139
GATACTTA | inactive: 0.0275
CCAATCGA | inactive: -0.00478
AGCAGCTA | ≥ 0.0345
GACACCGA | inactive: 0.142
AACATAAG | inactive: 0.268
AACCCACC | inactive: -0.108
CACTCAGG | inactive: -0.00651
ACTGTTTA | inactive: 0.14

Sequence | PBM E-score
AAGCCATG | inactive: 0.0293
ATGTTAAC | active: 0.377
AGTCTCAG | inactive: -0.0464
ATCTACTA | ≥ 0.131
GTTGCATA | inactive: 0.101
CTTCCAAG | inactive: -0.0467
GAGCACAC | inactive: 0.00424
CAACTGGG | inactive: -0.137
CCCTGTTC | inactive: 0.0938
TGGCAGAA | inactive: -0.0527
GATCCCCA | inactive: -0.068
CGAATCTA | inactive: 0.03
AATGCTTA | inactive: 0.0915
AAACGAGA | inactive: 0.0722
GGGGTCAA | inactive: -0.07
AGTGCCTG | inactive: -0.0647
GGAAGTCA | inactive: -0.0842
AGCATGCC | inactive: -0.0456
CACGCTAA | inactive: 0.072
CGCCCGCA | inactive: -0.252
AGATCGAG | inactive: -0.00642
GCCCCCTA | inactive: -0.314
CAGTTAAC | inactive: -0.00501
GCTGCCCC | inactive: -0.251
ACCCATAA | inactive: 0.0412

Sequence | PBM E-score
AGGCATGG | inactive: -0.115
ATTGAGCG | inactive: 0.0017
AATGCATG | inactive: 0.189
CGGACTGC | inactive: -0.13
ATTCGTTA | inactive: 0.091
AATCTTGA | inactive: 0.0233
ATTTTCCG | inactive: 0.0331
CGTAAATA | inactive: 0.156
ACTTTCTC | inactive: -0.0817
GTCGATCA | inactive: 0.0748
GCCCGGTA | inactive: -0.104
GGTTTCAA | inactive: -0.0486
GCGTTGAA | inactive: -0.0243
CCGCGCCA | inactive: -0.296
CAGTTGAC | inactive: 0.111
AATAGAAC | inactive: 0.132
CTAGTAGA | inactive: 0.078
CTTGGGAA | inactive: -0.0551
CACGGCCC | inactive: -0.119
ACACCGTC | inactive: 0.0118
AGCGCCCG | inactive: -0.226
ACGATGCT | inactive: -0.0533
CCTAACCC | inactive: -0.172
GTCAGGAC | inactive: -0.0429
AACTAGAA | inactive: 0.142

Sequence | PBM E-score
GCCTTAGC | inactive: -0.148
GTGGTCTA | inactive: -0.144
GATGTCCC | inactive: 0.0951
ATTTTCGA | inactive: 0.0227
AAGATTAG | inactive: 0.073
AAACTCCC | inactive: -0.183
ATATGGAC | inactive: 0.0807
CCCATTCC | inactive: -0.138
CTTCAACC | inactive: 0.0105
GCAGGCCC | inactive: -0.267
GGGTAGAA | inactive: -0.0384
ATGAAATA | inactive: 0.149
GGGAGTAC | inactive: -0.0407
ATCCATAC | inactive: 0.142
ACCCAACG | inactive: -0.0688
AATCGCTA | inactive: 0.0699
CCTAAAGC | inactive: -0.0933
TGAACTCA | inactive: 0.0355
GCCCTGAA | inactive: -0.103
CAGATATA | inactive: 0.12
CACGCTCC | inactive: -0.15
CGAATCCG | inactive: 0.0709
ATAGTCAT | inactive: 0.162
AAAAGCCT | inactive: -0.0858
CCCCCCCG | inactive: -0.355

Sequence | PBM E-score
ATTCGCGA | inactive: -0.00018
AATCCTTA | inactive: 0.0952
CCTTTAAC | inactive: -0.00777
AGCCTTTC | inactive: -0.163
GAAGTCAA | inactive: -0.0438
ATTCAACA | inactive: 0.192
AGCCTCCC | inactive: -0.211
ATACACTA | inactive: 0.194
CCGACTGA | inactive: -0.125
CACACTCA | inactive: 0.0177
CCGACGCC | inactive: -0.149
AATAGGGT | ≥ 0.0597
CCCGGGCC | inactive: -0.329
ATGTGGCG | inactive: -0.0334
GTGTATAA | inactive: 0.202
GCCCTCGC | inactive: -0.235
ACAGTACA | active: 0.331
AATTGTCC | inactive: 0.0852
CCTGATTA | inactive: 0.0929
AGATCGGA | inactive: 0.0416
CCGCACAC | inactive: -0.0785
CAAGTATG | inactive: 0.152
TCGAGCGA | inactive: -0.044
ACACAAAG | inactive: 0.167
GAATAGCA | inactive: 0.135

Sequence | PBM E-score
GTAGTTTA | inactive: 0.247
CCTTTTTC | inactive: -0.0349
CCTGTCGC | inactive: -0.00281
AGAATTCT | inactive: 0.0296
ATGTCTGG | inactive: 0.171
AGGGAATG | inactive: -0.0419
AGACTTTA | inactive: -0.0334
GAAATCTA | inactive: 0.0134
AGCACAGA | ≥ 0.0685
AGACAGTG | inactive: -0.00148
ACTTGAGG | inactive: -0.0564
GCTGCACA | inactive: -0.0219
ACCTAACA | inactive: 0.19
CAAGGACG | inactive: -0.0604
GAAACGAC | inactive: 0.0754
ACCCCGTA | ≥ -0.0587
AAAAAAAC | inactive: 0.0868
CCGACCCA | inactive: -0.2
GACTGTGC | inactive: -0.0552
CCCCTGCG | inactive: -0.245
CAAAGGCC | inactive: -0.129
ACGGGCCA | inactive: -0.114
CGCCGGCA | inactive: -0.176
ACTGAACG | inactive: 0.0197
GTGACAGA | inactive: 0.138

Sequence | PBM E-score
ACGCTGGC | ≥ -0.0853
AAGTACGC | inactive: -0.051
TTATGCAA | inactive: 0.0735
ATTGTACA | active: 0.417
CTTGAGGC | inactive: -0.197
AACAGTAC | inactive: 0.222
GTTTTTCA | inactive: 0.0316
CTCCTTAC | inactive: 0.0979
AGCGTCCT | inactive: -0.0748
AGTTCCGC | inactive: -0.114
ACGAGGAT | inactive: 0.063
ACATTAAC | inactive: 0.256
GGTCCTTA | inactive: -0.093
AGATTCCG | inactive: 0.00937
ACTGCTCA | inactive: -0.0173
CCCTCTTC | inactive: -0.206
ATTCCCAA | inactive: 0.0651
GCGGGCCC | inactive: -0.315
ATCCAAAT | ≥ 0.151
TGACTCAA | inactive: 0.0741
ATCGCATA | inactive: 0.1
GAAAACCA | inactive: -0.0924
ATGGGATA | inactive: 0.063
GACGAACA | inactive: 0.174
